Reference: PubChem BioAssay AID624417 (National Center for Advancing Translational Sciences (NCATS), 2012)
About 6,400 (1.6%) of roughly 410,000 compounds were called active. Inconclusive results, whose numbers are uncertain, are shown with a selection of clear calls. Calls come from the whole dose curve; as a rule, active = well fitted inhibition curve with a large enough effect; inconclusive = small, poorly fitted or top-dose-only effect; inactive = no such curve, though single readings can be large or run the other way. No potency is given beside an inconclusive call; the fits are too rough.

biological target: Glucagon-like peptide 1 receptor (Homo sapiens) (UniProt P43220); assay: qHTS of GLP-1 Receptor Inverse Agonists (Inhibition Mode); settings: HEK293 GLP-1R CRE-luciferase, luminescence, 24 h, GLP-1R form is constitutively active; series mostly up to 38.3 µM; note: nearly all actives have a fitted effect of over 55% in size
UniProt P43220, sequence (P43220 whole entry, looked up): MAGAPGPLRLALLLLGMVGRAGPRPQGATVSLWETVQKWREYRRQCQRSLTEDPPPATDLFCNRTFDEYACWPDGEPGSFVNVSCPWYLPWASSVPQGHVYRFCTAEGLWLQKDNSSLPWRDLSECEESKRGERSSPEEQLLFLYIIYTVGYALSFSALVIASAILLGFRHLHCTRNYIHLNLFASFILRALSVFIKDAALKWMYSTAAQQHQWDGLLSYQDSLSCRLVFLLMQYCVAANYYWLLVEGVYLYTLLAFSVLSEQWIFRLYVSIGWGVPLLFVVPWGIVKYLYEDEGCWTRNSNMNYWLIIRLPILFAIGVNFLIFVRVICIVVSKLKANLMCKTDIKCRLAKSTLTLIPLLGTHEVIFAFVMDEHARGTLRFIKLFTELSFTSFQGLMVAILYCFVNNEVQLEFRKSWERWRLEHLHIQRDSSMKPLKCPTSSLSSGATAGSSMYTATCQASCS
Method in brief: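 Cells are plated, allowed 12 hours at 37 deg C, then treated with compounds for 24 hr before luciferase detection reagent is added and luminescence is read after 12 min at room temperature. The HEK293 line carries constitutively active GLP-1R with a cAMP-responsive reporter.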
Potency is the fitted concentration of half-maximal effect; tags give direction and shape of the fitted curve.

Row | Structure (SMILES) | Potency
1 | Cc1ccc(NC(=S)NCCC2=CCCCC2)cc1 | inconclusive [inhibitor, single point]
2 | COc1cc2cc(c1Cl)N(C)C(=O)CC(OC(=O)C(C)N(C)C(C)=O)C1(C)OC1C(C)C1CC(O)(NC(=O)O1)C(OC)C=CC=C(C)C2 (stereo not drawn) | inactive
3 | CCOC(=O)C1(CCCc2ccccc2)CCN(Cc2cn(CC)nc2C)CC1 | inconclusive [inhibitor, partial curve, poor fit]
4 | Cc1nn(-c2ccccc2)c(N2CCCCC2)c1/C=N/NC(=O)c1ccncc1 | inconclusive [inhibitor, single point]
5 | Cc1ccc2c(c1)C(=O)N1[C@H]3c4cc(Cl)ccc4OC[C@@H]3[C@H](c3ccccc3)[C@]1(C)C(=O)N2 | inconclusive [inhibitor, full curve, poor fit]
6 | Cc1ccccc1CS(=O)(=O)c1nnc([C@H](Cc2ccccc2)NC(=O)OC(C)(C)C)o1 | active: 10 µM
7 | COc1ccc(-n2c(Cc3cccn3C)nnc2SCC(=O)Nc2cc(Cl)ccc2OC)cc1 | inconclusive [inhibitor, single point]
8 | O=[N+]([O-])c1cc(S(=O)(=O)N2CCCC2)ccc1OCCOc1ccccc1 | inconclusive [inhibitor, partial curve]
9 | Oc1ccc2ccccc2c1CNc1ccc2ccccc2c1 | inconclusive [inhibitor, single point]
10 | COc1ccc(-c2coc3cc4oc(=O)c(CC(=O)O)c(C)c4cc23)cc1 | inactive
11 | Cc1cccc(C)c1Nc1nnc(SCC(=O)NC(=O)c2cccn2C)s1 | inconclusive [inhibitor, single point]
12 | Cc1ccc(C2C(/C=C3/SC(=S)NC3=O)=C(c3cccs3)Oc3ccccc32)cc1 (stereo not drawn) | inconclusive [inhibitor, partial curve, poor fit]
13 | O=C1C=C(OCc2ccccc2)CN1 | inconclusive [inhibitor, full curve]
14 | C=CCC[C@@H](Cc1ccc(F)cc1)C(=O)OC[C@@H](Cc1c[nH]c2ccccc12)NC(=O)[C@@H](CC=C)CC(=O)NCCO | inconclusive [inhibitor, partial curve, poor fit]
15 | COc1ccc(/C=C/C(=O)NC(=S)Nc2ccc(S(=O)(=O)Nc3nccnc3OC)cc2)cc1 | inactive
16 | COc1ccc(-n2ncc3c2ncn2nc(-c4ccc(Cl)cc4Cl)nc32)cc1 | inactive
17 | N#CCc1nn2c3c(cnc2c1C#N)C(=O)CCC3 | inactive
18 | CSc1ccc(-c2nnn(Cc3ccc(C)cc3)n2)cc1 | inconclusive [inhibitor, single point]
